In all, about 310,000 compounds went through this assay and about 2,200 (0.71%) showed an effect of 50% or more. The effect is printed as a negative number. The list shows a part of the results.
target: human ether-à-go-go-related gene (hERG) potassium channel (human, UniProt Q12809); assay: primary screen, population patch clamp on CHO cells stably expressing hERG
Sequence (Q12809 whole entry, looked up): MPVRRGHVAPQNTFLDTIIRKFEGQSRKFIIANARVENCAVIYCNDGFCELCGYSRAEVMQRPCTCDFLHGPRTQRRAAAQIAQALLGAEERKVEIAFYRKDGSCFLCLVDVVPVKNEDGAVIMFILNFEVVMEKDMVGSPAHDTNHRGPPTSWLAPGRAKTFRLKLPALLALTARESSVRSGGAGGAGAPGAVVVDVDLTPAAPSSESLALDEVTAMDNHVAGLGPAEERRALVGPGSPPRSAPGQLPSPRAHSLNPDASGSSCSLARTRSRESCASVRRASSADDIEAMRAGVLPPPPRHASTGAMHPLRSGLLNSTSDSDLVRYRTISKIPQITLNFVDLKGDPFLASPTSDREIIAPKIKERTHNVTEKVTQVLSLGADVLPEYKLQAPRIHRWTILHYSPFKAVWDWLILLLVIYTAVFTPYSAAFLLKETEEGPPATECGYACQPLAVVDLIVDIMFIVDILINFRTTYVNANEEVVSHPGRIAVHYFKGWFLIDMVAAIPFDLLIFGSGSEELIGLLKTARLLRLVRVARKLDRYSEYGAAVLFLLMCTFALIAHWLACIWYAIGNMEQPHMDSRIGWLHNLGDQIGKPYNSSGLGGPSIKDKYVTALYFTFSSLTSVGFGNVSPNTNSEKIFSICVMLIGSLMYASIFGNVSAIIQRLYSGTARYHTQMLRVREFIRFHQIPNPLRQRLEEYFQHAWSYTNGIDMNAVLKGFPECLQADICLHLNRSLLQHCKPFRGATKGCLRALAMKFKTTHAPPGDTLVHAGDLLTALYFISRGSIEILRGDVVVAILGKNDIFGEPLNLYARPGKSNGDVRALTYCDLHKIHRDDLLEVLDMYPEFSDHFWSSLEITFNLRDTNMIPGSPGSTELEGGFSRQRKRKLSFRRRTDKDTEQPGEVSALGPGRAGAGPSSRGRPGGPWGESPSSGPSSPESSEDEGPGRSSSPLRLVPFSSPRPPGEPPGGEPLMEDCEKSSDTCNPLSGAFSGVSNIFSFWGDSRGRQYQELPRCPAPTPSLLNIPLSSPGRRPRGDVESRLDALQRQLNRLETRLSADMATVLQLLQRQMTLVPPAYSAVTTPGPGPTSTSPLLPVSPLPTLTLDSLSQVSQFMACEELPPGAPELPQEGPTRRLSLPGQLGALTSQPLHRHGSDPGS

In order of falling “hERG current change (%, negative = inhibition) at 1uM” value:
1. COC(=O)C1=C(C)N(c2ccccc2)/C(=C/c2ccco2)C1=O  31.1%
2. CCOC(=O)CC1(NC(=O)C2CCC(=O)N(CCc3ccccc3)C2)CCCCC1 (centres unmarked)  29.2%
3. Cc1nn(CC(=O)N2CCc3ccccc3C2)c(C)c1[N+](=O)[O-]  20.2%
4. Cc1ccc(NC2=NC3(CCCC3)N=C(N)N2)c(C)c1  17.8%
5. Cc1ccc(C)c(C(=O)CCC(=O)Nc2ccc(F)cc2)c1  17.2%
6. O=c1oc2ccc([N+](=O)[O-])cc2c(N2CCOCC2)c1[N+](=O)[O-]  16.5%
7. COc1ccc(C(C)=O)cc1Cn1c(=O)cc(C)[nH]c1=O  16.1%
8. CCC(C(=O)NC1CCCCC1)n1nc(C)c2c(C)n(-c3ccccc3)nc2c1=O (centres unmarked)  15.2%
9. COc1ccc(C(=O)NC(=S)NCc2ccco2)cc1  15%
10. Cc1ccc(-c2nnn(CC(=O)NCCc3ccc4c(c3)OCO4)n2)cc1  14.9%
11. O=C(O)CNC(=O)/C(=C\c1cccc([N+](=O)[O-])c1)NC(=O)c1ccco1  14.8%
12. C=CCSc1nnc(N2C(=O)C(O)=C(C(=O)c3ccco3)C2c2ccccc2F)s1 (centres unmarked)  14.7%
13. COc1cc(C(=O)Nc2nnc(C(C)(C)C)s2)c([N+](=O)[O-])cc1OC  14.2%
14. COc1cc(/C=N/N(C)c2ccccc2)ccc1O  13.6%
15. O=c1sc2ccccc2c(=O)n1Cc1ccccc1F  13.3%
16. CCCOc1ccc(-c2nn(-c3ccccc3)cc2/C=C2\SC(=S)N(C3CCS(=O)(=O)C3)C2=O)cc1 (centres unmarked)  13.3%
17. CCC(C)n1c(O)c(C=NCCN2CCOCC2)c(=O)[nH]c1=S (centres unmarked)  11.7%
18. Cc1ccc(/C=N/NC(=O)c2nnn(-c3nonc3N)c2CSc2ccccc2)s1  11.4%
19. O=C(CSc1nnnn1-c1ccc(Cl)c(C(=O)O)c1)NC(c1ccccc1)c1ccccc1  11.3%
20. Nc1nc(-c2cccs2)c(-c2cccs2)s1  11.2%
21. COc1ccc(OCC(=O)N2N=C(C(F)F)CC2(O)C(F)F)cc1 (centres unmarked)  10.3%
22. CCOc1ccccc1NC(=S)N1CCN(c2ccc(O)cc2)CC1  10.3%
23. Cc1ccc(OCc2cc(C(=O)N3CCN(c4ccccc4)CC3)no2)cc1C  9.56%
24. COc1cc(/C=C2\SC(N)=NC2=O)ccc1OCC(=O)Nc1ccccc1C  9.43%
25. CC1CCCC(NC(=O)C2CCC(CNc3c(N4CCCC4)c(=O)c3=O)CC2)C1C (centres unmarked)  9.03%
26. COc1ccccc1N1C(=NC(=O)C(C)Oc2ccccc2)SC2CS(=O)(=O)CC21 (centres unmarked)  6.42%
27. COc1ccc2cc3c(N)nn(C(=O)c4cccc([N+](=O)[O-])c4)c3nc2c1  5.91%
28. CC(=O)N/C(=C\c1ccccc1)C(=O)OC(C)C(=O)N(C)c1ccccc1 (centres unmarked)  5.31%
29. COc1ccc(C2=NN(C(=S)Nc3ccccc3)C(c3ccccc3)C2)cc1 (centres unmarked)  5.13%
30. COc1ccc(OC)c(Nc2nc(NCc3ccco3)nc(N)c2[N+](=O)[O-])c1  3.91%
31. F[B-](F)(F)F.O=[N+]([O-])c1ccc2nc(-[n+]3c(-c4ccccc4)cc(-c4ccccc4)cc3-c3ccccc3)[nH]c2c1  3.72%
32. CC(=O)N1CCOc2ccc(S(=O)(=O)NCCc3cccc(C)c3)cc21  3.36%
33. Cc1ccc(OCCn2cc(/C(N)=N/O)c3ccccc32)cc1C  2.47%
34. CCOc1cc(C(=O)Nc2ncn[nH]2)cc(OCC)c1OCC  0.901%
35. COc1ccc(C(=S)N2CCOCC2)cc1OC(=O)c1cccc([N+](=O)[O-])c1  -0.0836%
36. CCn1c(SCC(=O)Nc2ccc(C(=O)OC)cc2)nc2cccnc21  -0.675%
37. Cc1ccccc1NC(=O)c1cc(-c2ccccc2)n(CCCN2CCOCC2)c1C  -3.58%
38. CCOc1cccc2cc(C(=O)Nc3nccs3)c(=O)oc12  -6.38%
39. CC(C)OCCCNC(=O)c1ccccc1Oc1ccccc1  -7.09%
40. CN(Cc1ccccc1)C(=O)C1CCCN(c2ncnc3c2nc2n3CCCCC2)C1 (centres unmarked)  -10.7%
41. CC1CCCC(C)N1CCCNC(=O)c1cc2c(s1)-c1ccccc1OC2 (centres unmarked)  -25.2%
42. Cc1cc(N2CCN(C(=O)c3ccco3)CC2)c2ccccc2n1  -68.6%
43. C/C(=N/NC(=O)CN1CCN(Cc2ccccc2)CC1)c1ccc([N+](=O)[O-])cc1  -72.9%
44. N=c1c(C(=O)NCc2ccc3c(c2)OCO3)cc2c(=O)n3ccccc3nc2n1CC1CCCO1 (centres unmarked)  -84.2%
